In all, about 220,000 compounds went through this assay and about 5,700 (2.6%) were called active. Inconclusive results, whose numbers are uncertain, are shown with a selection of clear calls. Calls come from the whole dose curve; as a rule, active = well fitted inhibition curve with a large enough effect; inconclusive = small, poorly fitted or top-dose-only effect; inactive = no such curve, though single readings can be large or run the other way. Where the call is inconclusive, the potency comes from a doubtful curve fit.
The compounds below were run against Lysine-specific demethylase 5B (Homo sapiens) (UniProt Q9UGL1) (assay: Primary screen for KDM5B Histone Demethylases FDH-coupled qHTS). Settings: FDH-coupled NADH fluorescence (FDH is formaldehyde dehydrogenase); activity change, negative = inhibition: at 57.7 µM (top of the series) unless noted.
Chain of UniProt Q9UGL1 (Q9UGL1 whole entry, looked up): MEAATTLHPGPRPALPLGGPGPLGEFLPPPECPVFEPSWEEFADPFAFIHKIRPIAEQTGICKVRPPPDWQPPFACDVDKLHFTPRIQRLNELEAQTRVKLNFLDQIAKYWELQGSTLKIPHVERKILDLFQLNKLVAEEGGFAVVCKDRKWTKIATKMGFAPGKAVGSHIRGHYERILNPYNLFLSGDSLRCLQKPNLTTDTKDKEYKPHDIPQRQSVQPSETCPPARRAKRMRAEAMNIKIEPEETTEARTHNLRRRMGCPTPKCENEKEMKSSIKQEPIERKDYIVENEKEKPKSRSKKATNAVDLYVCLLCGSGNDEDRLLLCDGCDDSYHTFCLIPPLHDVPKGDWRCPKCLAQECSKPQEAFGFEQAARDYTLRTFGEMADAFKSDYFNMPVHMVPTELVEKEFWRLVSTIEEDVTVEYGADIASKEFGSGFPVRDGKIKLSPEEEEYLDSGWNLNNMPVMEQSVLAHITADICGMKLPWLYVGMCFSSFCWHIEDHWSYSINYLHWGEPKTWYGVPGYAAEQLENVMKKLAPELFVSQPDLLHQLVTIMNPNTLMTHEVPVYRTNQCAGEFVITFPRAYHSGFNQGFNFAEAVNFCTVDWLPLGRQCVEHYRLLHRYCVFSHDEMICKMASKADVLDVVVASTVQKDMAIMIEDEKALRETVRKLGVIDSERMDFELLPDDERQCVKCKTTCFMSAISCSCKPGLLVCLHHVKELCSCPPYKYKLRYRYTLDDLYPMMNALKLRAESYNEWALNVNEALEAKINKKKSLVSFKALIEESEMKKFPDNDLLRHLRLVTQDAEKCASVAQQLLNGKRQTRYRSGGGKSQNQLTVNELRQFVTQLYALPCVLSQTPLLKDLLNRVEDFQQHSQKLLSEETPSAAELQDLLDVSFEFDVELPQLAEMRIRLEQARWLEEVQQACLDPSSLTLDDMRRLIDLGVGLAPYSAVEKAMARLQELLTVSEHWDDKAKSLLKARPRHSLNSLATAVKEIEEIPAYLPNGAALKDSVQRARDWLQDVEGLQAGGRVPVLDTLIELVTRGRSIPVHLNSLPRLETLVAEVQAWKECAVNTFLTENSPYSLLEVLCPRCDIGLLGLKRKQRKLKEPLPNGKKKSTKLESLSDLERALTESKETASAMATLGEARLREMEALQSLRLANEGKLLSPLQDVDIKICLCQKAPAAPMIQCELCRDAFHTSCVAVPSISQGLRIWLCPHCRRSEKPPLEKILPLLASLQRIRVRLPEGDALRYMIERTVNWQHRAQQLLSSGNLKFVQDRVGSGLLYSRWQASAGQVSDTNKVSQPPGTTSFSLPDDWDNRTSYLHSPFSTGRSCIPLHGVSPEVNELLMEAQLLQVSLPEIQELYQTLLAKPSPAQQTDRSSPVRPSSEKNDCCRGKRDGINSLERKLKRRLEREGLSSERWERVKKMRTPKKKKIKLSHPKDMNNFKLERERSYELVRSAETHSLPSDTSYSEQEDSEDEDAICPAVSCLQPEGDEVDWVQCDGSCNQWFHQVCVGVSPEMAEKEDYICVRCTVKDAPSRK
Procedure, shortened: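 Compound dilutions met 200 nM (final) KDM5BΔAP for 10 min at room temperature before substrate addition. The substrate mix held 12.5 µM H3K4me3 with cofactors 25 µM α-ketoglutarate and 50 µM Fe²⁺. NADH signal gain over 30 min defined activity.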
With `COCc1nc2nccc(-c3cccs3)n2n1` the “activity change, negative = inhibition” value was inactive: -5660%. For `Cc1c2cnn(CC(=O)O)c(=O)c2c(C)n1Cc1cccc(Cl)c1`, the Potency was inconclusive: 35.5 µM [inhibitor, single point]. For `O=C(CCc1nnn2c1CN(Cc1ccc(Br)o1)CC2)N1CCCC1`, the Potency was inconclusive: 14.1 µM [inhibitor, partial curve, poor fit]. `O=C(Cc1csc(-c2ccsc2)n1)Nc1ccnn1Cc1c(Cl)cccc1Cl` was tested, and the “activity change, negative = inhibition” value was inactive: 11.2%. For `O=C(CN1CCCCCC1)N1CCC(N2C(=O)C3(CCCC3)C2c2ccccc2)CC1` (stereo not given), the “activity change, negative = inhibition” value was inactive: -10.3%. With `Cn1nccc1-c1ccc2ncn(Cc3ccccc3)c(=O)c2n1` the Potency was inconclusive: 35.5 µM [inhibitor, partial curve, poor fit]. In the case of `Cc1ccc(NCc2nc3ccccc3n2CCOc2ccccc2C)cc1`, the Potency is reported as inconclusive: 25.1 µM [inhibitor, partial curve, poor fit]. For `CC1=C[C@@H](CNS(=O)(=O)c2ccc(Cl)cc2)[C@H](C(C)C)C[C@H]1CC(=O)N1CCOCC1`, the Potency was inconclusive: 31.6 µM [inhibitor, partial curve, poor fit]. In the case of `Nc1c(C(=O)Nc2ccccc2Cl)nnn1Cc1cccc(Cl)c1`, the Potency is reported as inconclusive: 14.1 µM [inhibitor, partial curve, poor fit]. With `O=C(O)CCC(=O)NN1C(=O)c2ccccc2NC1c1ccc(F)cc1` (stereo not given) the Potency was inconclusive: 31.6 µM [inhibitor, partial curve, poor fit]. `CCc1ccccc1NC(=O)C(=O)c1cc(C)n(-c2ccccc2F)c1C` was tested, and the Potency was inconclusive: 14.1 µM [inhibitor, partial curve, poor fit]. In the case of `CC1CCCCN1C(=O)CSc1nc2ccccc2nc1Cc1ccc(Cl)cc1` (stereo not given), the Potency is reported as inconclusive: 35.5 µM [inhibitor, single point]. With `CCc1cccc2c(C(=O)CN3CCC(C(=O)N4CCCC4)CC3)c[nH]c12` the “activity change, negative = inhibition” value was inactive: -13.4%. For `CC(C)(CN1CCC(Cc2ccc(C(=O)O)cc2)C1)N1CCOCC1` (stereo not given), the Potency was inconclusive: 11.2 µM [inhibitor, partial curve, poor fit]. For `CN1c2cc(C(=O)Nc3cccc(F)c3)ccc2C(=O)N2CCCCCC21` (stereo not given), the Potency was inconclusive: 22.4 µM [inhibitor, partial curve, poor fit]. For `CC(=O)Nc1cccc(-c2ccc3c(n2)CN(Cc2ccccc2C)C(=O)CO3)c1`, the “activity change, negative = inhibition” value was inactive: -3.5% [at 86.2 µM]. With `CCc1cccc(C)c1NC(=O)COCc1cc(-c2ccc3c(c2)OCO3)on1` the Potency was inconclusive: 28.2 µM [inhibitor, partial curve, poor fit]. In the case of `COc1ccc(-c2c(C)c3ccc(OC(C)=O)cc3oc2=O)cc1`, the Potency is reported as inconclusive: 39.8 µM [inhibitor, single point]. In the case of `CC(C)n1cc2cc(C(=O)N3CCN(Cc4cccc(F)c4)CC3)sc2c1`, the Potency is reported as inconclusive: 11.2 µM [inhibitor, partial curve]. With `Cn1c(C(=O)NCc2cccnc2)cc2c1CCN(Cc1ccccc1)C2` the Potency was inconclusive: 25.1 µM [inhibitor, partial curve]. `COc1ccc(N2CCN(C(=O)c3cccn4c(=O)c5ccc(Cl)cc5nc34)CC2)cc1` was tested, and the “activity change, negative = inhibition” value was inactive: -14.8%. With `CNc1nc(-c2cccs2)cc(C(F)(F)F)c1C#N` the Potency was inconclusive: 25.1 µM [inhibitor, single point]. `CCOC(=O)N1CCN(S(=O)(=O)c2ccc3c4c(cccc24)C(=O)N3)CC1` was tested, and the Potency was inconclusive: 28.2 µM [inhibitor, single point]. For `COc1ccc(-c2nc(S(=O)(=O)c3ccccc3)c(N3CCCCC3)o2)cc1`, the Potency was inconclusive: 28.2 µM [inhibitor, single point]. For `CC1CCN(Cc2ccc(CNc3ccc(C#N)cn3)cc2)CC1`, the Potency was inconclusive: 35.5 µM [inhibitor, single point]. `O=C(N/N=C/c1ccc2c(c1)OCCO2)c1ccncc1` was tested, and the Potency was inconclusive: 25.1 µM [inhibitor, single point]. For `O=c1c2c(n(Cc3cccnc3)n1-c1ccccc1)CN(CC1CC1)CC2`, the Potency was inconclusive: 39.8 µM [inhibitor, partial curve, poor fit]. For `COc1ccc(NS(=O)(=O)c2ccc3ccccc3c2)c2ncccc12`, the Potency was inconclusive: 31.6 µM [inhibitor, partial curve, poor fit]. With `COc1ccccc1N(C)S(=O)(=O)c1ccc(Cl)c(C(=O)NNC(=O)c2ccccc2O)c1` the Potency was inconclusive: 25.1 µM [inhibitor, partial curve, poor fit]. For `CC(C)C(=O)N1N=C(c2ccc(Cl)cc2)CC1c1ccc2nccnc2c1` (stereo not given), the “activity change, negative = inhibition” value was inactive: -30%. With `CCOC(=O)c1c(C)[nH]c(C)c1S(=O)(=O)N(C)CC(=O)Nc1cc(Cl)ccc1OC` the “activity change, negative = inhibition” value was inactive: -11%. With `CCn1ccc(C(=O)N2CCC3(CC2)CC(N(C(=O)c2ccccc2)C2CC2)CCO3)n1` (stereo not given) the “activity change, negative = inhibition” value was inactive: -28.4%. For `CN1c2cc(C(=O)Nc3cccc(OC(F)(F)F)c3)ccc2C(=O)N2CCCCCC21` (stereo not given), the Potency was inconclusive: 35.5 µM [inhibitor, partial curve, poor fit]. `CN(CC(=O)Nc1ccc(Cl)cc1C(F)(F)F)C1CCc2ccccc21` (stereo not given) was tested, and the “activity change, negative = inhibition” value was inactive: 7.97%. For `Oc1cccc(Nc2nc(-c3ccccc3)nc3ccccc23)c1`, the Potency was inconclusive: 31.6 µM [inhibitor, partial curve, poor fit]. In the case of `CC(Oc1ccccc1)C(=O)NCc1nnc2ccc(-c3ccccc3)nn12` (stereo not given), the “activity change, negative = inhibition” value is reported as inactive: -13.2%. With `O=C(Cc1ccc(N(Cc2cccc(F)c2)C(=O)c2ccco2)cc1)NCc1ccco1` the Potency was inconclusive: 28.2 µM [inhibitor, single point]. With `COc1ccc(NC(=O)N2CCC3(CC2)CC(N(C(=O)NC(C)C)C2CC2)CCO3)cc1` (stereo not given) the “activity change, negative = inhibition” value was inactive: 2.54%. With `Cc1noc(C)c1C(=O)Nc1nnc(CC(C)C)s1` the “activity change, negative = inhibition” value was inactive: 19.6%. With `CC1=C(C(=O)Nc2ccccc2)C(c2cccc(Cl)c2)N2C(=O)CSC2=N1` (stereo not given) the Potency was inconclusive: 39.8 µM [inhibitor, single point]. In the case of `CCOc1ccc(NC(=O)CSc2oc(-c3cccs3)nc2S(=O)(=O)c2ccc(Cl)cc2)cc1`, the Potency is reported as inconclusive: 35.5 µM [inhibitor, single point]. With `Cc1cccc2c(C(=O)NCc3ccco3)cc(-c3cccnc3)nc12` the Potency was inconclusive: 22.4 µM [inhibitor, single point]. With `CCCCN(CCCC)c1nc2ccccc2nc1C(C#N)C(=O)OC(C)C` (stereo not given) the “activity change, negative = inhibition” value was inactive: -8.23%. For `CCc1noc([C@@H]2CC(F)(F)CN2)n1`, the Potency was inconclusive: 31.6 µM [inhibitor, partial curve, poor fit]. `COc1ccc(CNc2nc(-c3ccc(OC)c(OC)c3)cc(C(F)(F)F)n2)cc1` was tested, and the Potency was inconclusive: 35.5 µM [inhibitor, partial curve, poor fit]. With `CCC(NC(=O)COc1cc2c(c3oc(=O)c(C)c(C)c13)CCC(C)(C)O2)C(=O)O` (stereo not given) the Potency was inconclusive: 10 µM [inhibitor, partial curve, poor fit]. `CC(Sc1ncnc2nc[nH]c12)C(=O)NCc1ccc(Cl)cc1Cl` (stereo not given) was tested, and the “activity change, negative = inhibition” value was inactive: 11%. For `COc1cccc(/C=C(\C#N)c2nc3ccc(C)cc3[nH]2)c1`, the Potency was inconclusive: 25.1 µM [inhibitor, partial curve, poor fit]. `O=C(COC(=O)COc1ccccc1F)NC1CC1` was tested, and the “activity change, negative = inhibition” value was inactive: -4.73%. `COc1ccc(C(C(=O)NC2CCCC2)N(Cc2cccnc2)C(=O)c2snc(C(N)=O)c2N)cc1OC` (stereo not given) was tested, and the Potency was inconclusive: 22.4 µM [inhibitor, partial curve, poor fit]. For `Cc1ccc(C)c(-c2cc3c(=O)n(CCNC(=O)Cc4cccs4)ccn3n2)c1`, the “activity change, negative = inhibition” value was inactive: 2.69%. `Cc1cc(NC(=O)C2CCN(c3cc(C(F)(F)F)ncn3)CC2)ccc1Br` was tested, and the Potency was active: 28.2 µM. With `CNc1oc(-c2cc(S(=O)(=O)N3CCCC3)c(C)o2)nc1C#N` the Potency was inconclusive: 28.2 µM [inhibitor, partial curve, poor fit]. For `Cc1ccc(Cl)cc1NC(=O)CN(Cc1ccc(Cl)cc1)S(C)(=O)=O`, the Potency was inconclusive: 35.5 µM [inhibitor, single point]. `Cc1cccc2nc(-c3ccc(O)cc3)c(Nc3ccccc3)n12` was tested, and the Potency was inconclusive: 20 µM [inhibitor, partial curve, poor fit]. For `c1cc(-c2ccc3c(c2)OCCCO3)n2nc(C3CCC3)nc2n1`, the Potency was active: 15.8 µM. With `CN(C)c1nc2c(c(=O)[nH]1)CCN(C(=O)c1sccc1Cl)C2` the “activity change, negative = inhibition” value was inactive: 27.7%. For `CC(C)NC(=O)c1cnc2sc(N3CCCCCC3)nn2c1=O`, the Potency was inconclusive: 31.6 µM [inhibitor, partial curve, poor fit]. For `CCOC(=O)c1c(C)[nH]c(CCC(=O)Nc2ccc(N(CC)CC)cc2C)c1C`, the Potency was inconclusive: 1.12 µM [inhibitor, partial curve, poor fit]. For `COc1ccc(CN(C(=O)Nc2ccccc2)c2ccccn2)cc1OC`, the Potency was inconclusive: 11.2 µM [inhibitor, partial curve, poor fit]. In the case of `CCCCC1(C)NC(=S)N2N1C(=S)NC2(C)CCCC` (stereo not given), the Potency is reported as inconclusive: 12.6 µM [inhibitor, partial curve, poor fit]. For `CN(C)c1cccc(C(=O)NCCC2CCN(C(=O)Nc3cc(F)cc(F)c3)CC2)c1`, the Potency was active: 31.6 µM. For `Cc1ccc2oc(C(=O)Nc3c(C(=O)c4ccc(C)c(F)c4)oc4ccccc34)cc(=O)c2c1`, the Potency was inconclusive: 31.6 µM [inhibitor, partial curve, poor fit]. `COc1ccc(C)cc1S(=O)(=O)N1CCN(c2ccc(C)cc2C)CC1` was tested, and the “activity change, negative = inhibition” value was inactive: -11.5%. With `O=c1cc(-c2ccccn2)oc2c(Nc3cccnc3)nccc12` the Potency was inconclusive: 39.8 µM [inhibitor, partial curve, poor fit].

From PubChem BioAssay AID1347165 (National Center for Advancing Translational Sciences (NCATS), 2019)
Note: nearly all actives have a fitted effect of over 70% in size.
Potency is the fitted concentration of half-maximal effect; tags give direction and shape of the fitted curve.
Throughout, for activity change, negative = inhibition: 0% is about no effect.
